# Results taken from PubChem BioAssay AID1347043 (National Center for Advancing Translational Sciences (NCATS), 2019).
# In all, about 76,000 compounds went through this assay and about 1,900 (2.5%) were called active. The inconclusive results got no clear call from the source; some entries with a clear call stand among them for comparison. Calls come from the whole dose curve; as a rule, active = well fitted inhibition curve with a large enough effect; inconclusive = small, poorly fitted or top-dose-only effect; inactive = flat fitted curve, though single readings scatter. Where the call is inconclusive, the potency comes from a doubtful curve fit.
# Target: Luciferin 4-monooxygenase (Photinus pyralis) (UniProt P08659)
# Assay: Firefly luciferase inhibition profiling of diverse chemical library using quantitative high-throughput screening; note: nearly all actives have a fitted effect of over 65% in size
# Conditions: purified P. pyralis luciferase, luminescence, biochemical; series mostly up to 115 µM
# Outline: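 Luminescence read by CCD imaging after purified firefly luciferase (10nM final) was added to substrate buffer holding 10uM D-luciferin and 10uM ATP, pH 7.5, pre-dosed with compound.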
# Potency is the fitted concentration of half-maximal effect; tags give direction and shape of the fitted curve.
# Chain of UniProt P08659 (P08659 whole entry, looked up): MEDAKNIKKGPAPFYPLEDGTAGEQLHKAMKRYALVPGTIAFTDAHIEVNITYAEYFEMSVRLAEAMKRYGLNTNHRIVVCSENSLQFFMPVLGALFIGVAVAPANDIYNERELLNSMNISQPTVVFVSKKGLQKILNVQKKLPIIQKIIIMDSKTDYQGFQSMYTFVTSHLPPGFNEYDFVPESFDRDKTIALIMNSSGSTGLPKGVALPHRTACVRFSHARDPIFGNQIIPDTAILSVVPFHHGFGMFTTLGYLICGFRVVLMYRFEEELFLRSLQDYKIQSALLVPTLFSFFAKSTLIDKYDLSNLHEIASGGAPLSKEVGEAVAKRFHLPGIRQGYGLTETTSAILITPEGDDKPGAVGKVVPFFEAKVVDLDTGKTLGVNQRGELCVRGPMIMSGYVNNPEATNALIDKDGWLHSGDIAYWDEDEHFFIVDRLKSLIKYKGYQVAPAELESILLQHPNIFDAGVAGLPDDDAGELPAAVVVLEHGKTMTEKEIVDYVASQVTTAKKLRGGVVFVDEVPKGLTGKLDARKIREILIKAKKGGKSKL
row,Compound,Potency
1,CNC(=O)CCn1ncc2cc(OC3CCc4cccc(-c5cccc(CO)c5)c43)ccc21 (stereo not given),"inconclusive: 89.1 µM [inhibitor, partial curve, poor fit]"
2,O=C(Nc1cccc(Br)c1)N1CCC2(CC1)SCC(=O)N2Cc1ccco1,"inconclusive: 44.7 µM [inhibitor, partial curve]"
3,Cc1ccc(CC(=O)NC2CCN(c3cc(-c4cccs4)[nH]n3)C2)cc1 (stereo not given),inactive
4,COc1cccc([S+](=O)([O-])N2CCc3nc(C(C)C)nc(-c4ccc(Cl)cc4)c3C2)c1,inactive
5,CNC(=O)CCn1ncc2cc(OCc3ccccc3-c3c(C)noc3C)ccc21,"inconclusive: 89.1 µM [inhibitor, partial curve, poor fit]"
6,CO[C@H]1C(=O)N(C(C)C)[C@H]1C1CCN(C(=O)c2ccc3ncccc3c2)CC1,"inconclusive: 39.8 µM [inhibitor, partial curve]"
7,CC(C)c1ccc(CN2C[C@@H]3C(=O)N(Cc4ccc5c(c4)OCO5)C(=O)[C@@H]3C2)cc1,inactive
8,CN(Cc1cccnc1)Cc1ccccc1C(F)(F)F,inactive
9,Cc1ccc(C2=NC3(CCN(C(=O)c4cccs4)CC3)ON2)cc1,"inconclusive: 39.8 µM [inhibitor, partial curve]"
10,O=C(O)c1ccc(CN2C[C@H](O)C[C@H]2c2nc(-c3ccc4c(c3)OCO4)no2)cc1,"inconclusive: 44.7 µM [inhibitor, partial curve]"
11,O=C(Nc1cccc(C(F)(F)F)c1)c1cc(-c2ccc[nH]2)n[nH]1,"inconclusive: 12.6 µM [inhibitor, partial curve]"
12,Cc1cc(C)n(-c2ccc(F)cc2CN2CCCC(CO)(Cc3ccccc3)C2)n1 (stereo not given),inactive
13,O=C(c1ccc2oc(-c3cccc(F)c3)nc2c1)N1CCCCC1CCO (stereo not given),active: 14.1 µM
14,COCCN1C(=O)CS(=O)(=O)C12CCN(C(=O)Cc1cccc(OC)c1)CC2,inactive
15,OC(c1nc(Nc2ccc(Cl)c(C(F)(F)F)c2)n[nH]1)C1CC1 (stereo not given),"inconclusive: 89.1 µM [inhibitor, partial curve]"
16,COc1ccc(CNC(=O)N2c3ccccc3CC2c2nc(C(C)C)no2)cc1 (stereo not given),"inconclusive: 39.8 µM [inhibitor, partial curve]"
17,CCn1ncc(NC(=O)Cn2ncc3cc(-c4ccc(F)cc4F)ccc32)n1,"inconclusive: 31.6 µM [inhibitor, partial curve, poor fit]"
18,Cc1ccc(NC(=O)C2CC(=O)N(c3n[nH]c4ccccc34)C2)nc1 (stereo not given),inactive
19,Cc1nn(-c2ccc(F)cc2)c(C)c1[C@@H]1C=C[C@@H](NC(=O)c2ccco2)C1,"inconclusive: 70.8 µM [inhibitor, full curve]"
20,COc1ccc(-c2noc([C@@H]3C[C@@H](O)CN3Cc3ccccc3)n2)cc1,"inconclusive: 56.2 µM [inhibitor, full curve, poor fit]"
21,O=C(c1ccccc1-c1ccccc1F)N(Cc1cccnc1)C1CC1,inactive
22,CN(C)c1nccnc1OC1CCN(C(=O)CCC(=O)c2ccc(F)cc2)C1 (stereo not given),"inconclusive: 50.1 µM [inhibitor, partial curve]"
23,CCn1nccc1C(=O)NCCC1CCN(C(=O)Nc2ccc(C)cc2)CC1,"inconclusive: 28.2 µM [inhibitor, partial curve]"
24,Fc1ccccc1CN1CCOC[C@H]1c1ncc(-c2ccc(Cl)s2)[nH]1,inactive

row,Compound,Potency
1,COc1ccc2cc(C3CN(C(=O)c4ccc(C)cc4OC)CCO3)ccc2c1 (stereo not given),active: 22.4 µM
2,Cc1noc(C)c1-c1cnc(Nc2cccc(C(F)(F)F)c2)c2c1CCO2,"inconclusive: 39.8 µM [inhibitor, partial curve]"
3,Cc1ccccc1OCc1nc(C2CN(C(=O)C(C)c3ccccc3)C2)no1 (stereo not given),"inconclusive: 31.6 µM [inhibitor, partial curve]"
4,CC1(C(=O)NCC2CC2)CCCc2cnc(Nc3ccccc3)nc21 (stereo not given),inactive
5,COc1ccc(-c2cc(N3CCCC(NC(=O)c4cnccn4)C3)n[nH]2)cc1 (stereo not given),"inconclusive: 39.8 µM [inhibitor, partial curve]"
6,O=C(NCc1ccc2c(c1)OCO2)c1nc(-c2ccc(Cl)cc2)c2cnccn12,active: 25.1 µM
7,Cc1ccc(CCNC(=O)C2CCN(C(=O)c3nnn4c3COC(c3ccc(C)cc3)C4)CC2)cc1 (stereo not given),active: 8.91 µM
8,Cc1ncccc1C(=O)N1CC(Oc2ccc(-c3nc(-c4ccccc4)no3)cc2)C1,active: 1 µM
9,COc1ccc(C(=O)Nc2ccc([C@H]3OCC(=O)N(C(C)C)[C@@H]3CO)cc2)cc1,active: 25.1 µM
10,O=C(c1cccs1)N1Cc2[nH]cnc2C[C@H]1c1nc(-c2ccc3ccccc3c2)no1,active: 28.2 µM
11,Cc1noc2c(NC3CCC(O)CC3)cc(-c3cccnc3)nc12 (stereo not given),inactive
12,COc1cccc(C(=O)NCCC2CCN(C(=O)Nc3cccc(C)c3)CC2)c1,"inconclusive: 56.2 µM [inhibitor, partial curve]"
13,Cc1ccc(-n2cc(CN3CCCCC3C(N)=O)c(-c3cccc(C)c3)n2)cc1 (stereo not given),"inconclusive: 79.4 µM [inhibitor, single point]"
14,CN(C)c1ccc(C(=O)N2CCN(C(=O)c3nnn4c3COC(c3ccc(Cl)cc3)C4)CC2)cc1 (stereo not given),inactive
15,O=C(NCCc1cccs1)c1noc(-c2ccc(F)cc2)n1,"inconclusive: 31.6 µM [inhibitor, partial curve, poor fit]"
16,Cc1ccc(-c2cc3c(=O)n(CCNC(=O)Cc4cccs4)ccn3n2)cc1C,"inconclusive: 2.82 µM [inhibitor, full curve]"
17,Cc1ccc2oc([C@H]3CCN(Cc4cccs4)C3)nc2c1,active: 10 µM
18,COC[C@H]1C[C@@H](NC(=O)Nc2ccc3c(c2)OCCO3)[C@H](O)[C@@H]1O,"inconclusive: 126 µM [inhibitor, single point]"
19,CC(C)c1noc(-c2cccn3c(CNC(=O)c4cc(F)ccc4Cl)nnc23)n1,inactive
20,CCCN(C)c1nccnc1OC1CCN(C(=O)c2ccc(F)cc2)C1 (stereo not given),active: 35.5 µM
21,Cc1ccc2oc([C@H]3CCN(Cc4ccc(C(F)(F)F)cc4)C3)nc2c1,"inconclusive: 50.1 µM [inhibitor, partial curve]"
22,COc1ccc(C2Cn3cnc(C(=O)N4CCC(C(=O)Nc5ccc(C)cc5C)CC4)c3CO2)cc1 (stereo not given),"inconclusive: 39.8 µM [inhibitor, partial curve]"
23,Cc1oc(C(O)c2ccccc2)nc1C(=O)Nc1ccc2c(c1)NC(=O)CO2 (stereo not given),"inconclusive: 44.7 µM [inhibitor, partial curve]"
24,O=c1n(-c2ccc(C(F)(F)F)cc2)nc2n1CCN(Cc1ccccn1)C2,"inconclusive: 50.1 µM [inhibitor, partial curve, poor fit]"

row,Compound,Potency
1,COc1cccc(-c2cc(C(=O)N3CCC(Cn4cccn4)CC3)[nH]n2)c1,active: 31.6 µM
2,c1ccc(-c2nc(-c3ccc(OC4CNC4)cc3)no2)cc1,active: 3.98 µM
3,Cc1cc2nc(CO[C@H]3CN(C4CCOCC4)C[C@H]3F)[nH]c2cc1C,"inconclusive: 126 µM [inhibitor, single point]"
4,O=C(NCc1ccccc1)N1CC[C@H](c2nc3ccc(F)cc3[nH]2)C1,"inconclusive: 89.1 µM [inhibitor, partial curve]"
5,C[S+](=O)([O-])N1CCNc2cnc(Nc3cccc(C(F)(F)F)c3)nc2C1,"inconclusive: 44.7 µM [inhibitor, partial curve]"
6,CC(C)c1ccc(NC(=O)C2CCN(C(=O)c3ncn4c3COC(c3ccc(F)cc3)C4)CC2)cc1 (stereo not given),"inconclusive: 50.1 µM [inhibitor, partial curve]"
7,O=C(c1ccccc1F)N1CCCC(c2noc(COc3ccccc3F)n2)C1 (stereo not given),inactive
8,CCN1c2cc(C(=O)Nc3ccc(OC)c(F)c3)ccc2C(=O)N2CCCCCC21 (stereo not given),inactive
9,CCc1nnc(NC(=O)C2CC(=O)N(c3n[nH]c4ccccc34)C2)s1 (stereo not given),inactive
10,CN1c2cc(C(=O)Nc3ccc4c(c3)CCC4)ccc2C(=O)N2CCCCCC21 (stereo not given),"inconclusive: 22.4 µM [inhibitor, full curve]"
11,Cn1c(CN2CCN(c3ccc(C#N)cn3)CC2)nnc1C1CC(N)C1 (stereo not given),inactive
12,COc1cccc(C(=O)Nc2ccc3c(c2)CN(Cc2cccc(OC)c2OC)C(=O)CO3)c1,"inconclusive: 39.8 µM [inhibitor, partial curve]"
13,O=C(c1[nH]nc2c1CCc1ccccc1-2)N1CCC(c2noc(-c3cccnc3)n2)C1 (stereo not given),inactive
14,CN(C1CCc2nn(CC3CC3)c(=O)n2CC1)S(=O)(=O)c1cn(C)cn1 (stereo not given),inactive
15,CCN1c2cc(C(=O)Nc3cccc(OC)c3)ccc2C(=O)N2CCCCCC21 (stereo not given),inactive
16,CNc1ccc(-c2noc([C@@H]3CCCN3C3CCC3)n2)cn1,"inconclusive: 63.1 µM [inhibitor, partial curve]"
17,CC1(CNC(=O)c2ccc(C#N)cc2)CCOCC1,inactive
18,COc1cccc(CNC(=O)CN2C(=O)NC3(CCC(C(C)(C)C)CC3)C2=O)c1 (stereo not given),inactive
19,CSc1ccc(CNC(=O)c2ccc3c(c2)N(C)C2CCCCN2C3=O)cc1 (stereo not given),"inconclusive: 31.6 µM [inhibitor, partial curve]"
20,COCCNC(=O)c1nc(-c2ccsc2)c2ccccn12,"inconclusive: 79.4 µM [inhibitor, partial curve, poor fit]"
21,CN(C)c1cccc(-c2cnc(Nc3cccc(N[S+](C)(=O)[O-])c3)c3c2CCO3)c1,"inconclusive: 39.8 µM [inhibitor, full curve]"
22,Cc1nn(-c2ccc(C(C)C)cc2)c(C)c1[C@@H]1C=C[C@@H](NC(=O)NCc2ccccc2)C1,"inconclusive: 3.16 µM [inhibitor, full curve]"
